Results: the supplement of paper PMC3334620
In all, about 33,000 sequences were measured (“E-score (-0.5 to 0.5)”: median about -0.012, highest 2% from about 0.27 on). The list shows a part of the results.

target: T1, Vhr1 (UniProt P40522); experiment: PBM E-score (8-mer binding enrichment) (E-score (-0.5 to 0.5)); higher = stronger / more preferred TF binding; most listed sequences are background and not binding sites; settings: protein concentration: 200 nM; construct: GST-full length
T1 sequence: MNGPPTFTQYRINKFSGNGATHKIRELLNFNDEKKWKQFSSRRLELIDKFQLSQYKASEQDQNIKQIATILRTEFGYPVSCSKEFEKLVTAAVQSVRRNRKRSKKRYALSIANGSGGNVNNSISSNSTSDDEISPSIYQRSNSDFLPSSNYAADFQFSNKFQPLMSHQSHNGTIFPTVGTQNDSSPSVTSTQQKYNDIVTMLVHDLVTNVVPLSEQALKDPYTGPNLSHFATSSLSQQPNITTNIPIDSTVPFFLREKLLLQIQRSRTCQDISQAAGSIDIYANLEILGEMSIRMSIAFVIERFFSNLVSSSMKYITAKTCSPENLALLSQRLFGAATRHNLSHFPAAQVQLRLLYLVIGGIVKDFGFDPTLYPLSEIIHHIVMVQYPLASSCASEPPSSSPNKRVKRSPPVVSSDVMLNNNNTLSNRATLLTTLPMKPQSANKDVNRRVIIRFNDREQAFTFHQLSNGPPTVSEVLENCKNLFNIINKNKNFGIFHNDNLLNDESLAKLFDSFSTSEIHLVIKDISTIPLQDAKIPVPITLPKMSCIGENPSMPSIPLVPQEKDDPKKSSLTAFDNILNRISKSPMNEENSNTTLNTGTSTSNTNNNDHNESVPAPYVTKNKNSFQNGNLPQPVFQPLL
Summary of the method: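 For each ungapped eight-base word taken together with its reverse complement, the Universal PBM Analysis Suite assigned an E-score. Binding data came from GST-tagged yeast transcription factors, applied at about 100-200 nM, on universal all-10-mer Agilent arrays made double-stranded by primer extension. Fluorescent anti-GST marked bound protein, and scans were normalised with masliner.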

Sequence	PBM E-score
TAGTATGA	0.265
CGAAAGAG	-0.21
AGACAATA	0.156
CATTATCA	0.131
ACCGCTAA	-0.103
AGCGAAAG	-0.203
AATTTAAT	-0.0744
GCGAGAGC	-0.172
GATTACGC	0.138
ACCCGGGG	0.0123
TAGTGGGA	-0.0353
CCGAGCCA	0.148
TCAGGAAA	-0.205
ATATTGGA	0.0284
AAGTGATC	0.00255
CTCGGTCA	-0.0702
CGATGTCA	-0.0363
AACGCTAG	-0.177
CCATCATC	0.138
ACGTCTCT	-0.234
AGAACGAG	0.0663
TCCAGGCA	0.0954
AAGACACA	-0.0153
GTCCCGAA	-0.146
CAGCATGA	0.198

Sequence	PBM E-score
AAATATCT	0.0921
ACCGGGTA	0.0893
ATATATAT	0.324
GCTCACAA	-0.0348
ATATCAAC	0.182
CGTCCAAC	-0.038
CTAGGCTC	-0.22
ACCGCGTG	0.0939
CACCCGCC	0.329
GGAACTAC	-0.0553
CGGGAAGC	-0.0043
GAAAAACA	-0.106
CCCTGGCA	-0.162
TAGGAGGA	-0.0312
ACCTCAAA	-0.0988
ACTTACGA	0.0407
AGGGTGGA	0.0785
ATAGTATG	0.191
ATAACCTC	-0.0658
CAGTGTAG	0.137
CCAAGTAA	-0.0153
GTGCCCAC	-0.0897
CTTTTAGA	-0.115
GACGAGTA	0.077
AGAGTTAT	0.0802

Sequence	PBM E-score
GACACAGC	0.129
CCCCCGCC	-0.109
CTTACGGC	-0.333
AAACCGGA	-0.0931
CCGTCCTC	-0.0308
AACCTTTA	-0.174
GCTTTGCA	-0.216
CTGGCGCA	-0.0167
AACACCCC	0.0266
AGTGATTA	0.216
AATCTGAC	0.0717
CCCTCCGA	-0.112
GGCTCTCA	-0.223
CATACTTA	0.0925
CAAGTCTA	-0.125
TAGGGCGA	-0.015
TAATGAGA	-0.102
CCTGGTCC	-0.0872
ATCCCCAA	0.124
CGACTATC	0.145
ATAGAAAT	-0.0573
CTGTGTCC	0.0632
CTTTTCTC	-0.248
ACTCTAGC	-0.118
GAGCACGC	-0.132

Sequence	PBM E-score
AAAGTCGA	-0.0163
AACACGCT	0.00013
AATCATAC	0.4
ACCGTCTA	-0.218
CCTATTCG	-0.19
CTCTGATA	-0.02
CGCGCAGC	-0.0206
ACTCGGTA	0.0244
AAGATCAG	0.0101
TAGCCCTA	-0.161
CACGGCGC	0.163
GAATTAAC	-0.0106
CAGTAGAC	-0.0792
GGTGGTTA	0.0977
CTGGTTGC	0.212
AACACAGA	0.14
AAAATTGG	-0.0887
GGGCTCGA	-0.128
CCGTTGTC	0.0439
ACGGCTAT	-0.221
GAGCCTCA	-0.161
GGTTGCAC	0.0671
GCCGGAAA	-0.124
TAGTCACA	0.394
CTAAGGAG	-0.283

Sequence	PBM E-score
CCCGTATC	0.00213
CCCCCGAA	-0.196
CATCCTAC	0.0893
AGCCACTG	0.136
GAATCTAA	0.00301
AGCTGGCC	-0.0882
GATAGGGC	-0.198
GCGATTTA	-0.133
AAAGGAAT	-0.147
GCGCGTGA	0.149
AAAACCAC	-0.109
GGGTACAC	0.0632
CTCCATAC	0.0791
ACACTAGG	0.13
GACGCTTA	-0.197
GGCACGGA	-0.00459
CCTCTCTA	-0.27
CTCTTGTA	0.0809
GCTCCAGC	0.0134
AGTCGTAA	0.16
GCCACGGC	-0.0877
GGGAGCAA	-0.143
GAAGCTCC	-0.0945
CCCAAGCA	0.109
CATACAGC	-0.0846

Sequence	PBM E-score
GGTAAAAA	-0.0946
GCTAAAGA	0.0836
TCTGATAA	-0.171
TATCCAAA	0.118
AAGGACAC	-0.0556
ACTGTCGC	0.0294
CACGCGGC	0.00996
CAATACTC	0.137
ATGAGCTC	0.134
CGATGGGC	0.297
CTCTGTTC	0.0833
CTAGAAAA	-0.223
GGATAATA	0.0366
AAAGATTC	0.0547
AAGGTGAC	0.0791
GTCGCAAC	0.125
CTAACATA	0.0142
CACAAAGA	-0.0121
GGCTTCGA	-0.0524
ACGTAGAT	-0.00676
GATTCCAC	0.191
AGGACCAC	0.13
GTCCTTTA	-0.0543
GGCGGGAC	0.0887
ACCTCGTC	0.0949

Sequence	PBM E-score
CGCGCCAG	0.182
GTGCCTCA	-0.151
GGTGGAAA	-0.209
CGGGAGTA	0.00502
GCAACAGC	-0.235
GGGCCCAC	-0.0236
ACCGCTCA	0.128
ATTTCGAC	-0.102
AATTTGAT	-0.0207
CGTCGCTC	-0.142
TTCAGCAA	-0.134
ACAACCGC	0.234
TATCGGCA	-0.218
CCCCAATC	0.126
ACTCGGAA	0.0207
GGGGTGCA	0.106
CGACTGCG	0.188
ACCATATA	0.132
CGGATAAG	-0.0104
CGTGGCCC	-0.222
AATCTCGA	0.0432
AAGAGCGA	0.0267
